Experimental data as given in PubChem BioAssay AID2451 (National Center for Advancing Translational Sciences (NCATS), 2010).
“And” between values parts separate entries of the source, which are not always exact repeats. Identical values can stand only once. Out of some 290,000 compounds screened, about 2,100 (0.72%) were called active. The inconclusive results got no clear call from the source; some entries with a clear call stand among them for comparison. Calls follow the shape of the dose curve; as a rule, active = well fitted inhibition curve with a large enough effect; inconclusive = small, poorly fitted or top-dose-only effect, or effect the other way; inactive = flat fitted curve, though single readings scatter. Potencies beside an inconclusive call are fits to weak or partial responses and may not hold up.

Molecular target: Fructose-bisphosphate aldolase (Giardia intestinalis (strain ATCC 50803 / WB clone C6)) (UniProt A8B2U2)
Sequence of UniProt A8B2U2 (A8B2U2 whole entry, looked up): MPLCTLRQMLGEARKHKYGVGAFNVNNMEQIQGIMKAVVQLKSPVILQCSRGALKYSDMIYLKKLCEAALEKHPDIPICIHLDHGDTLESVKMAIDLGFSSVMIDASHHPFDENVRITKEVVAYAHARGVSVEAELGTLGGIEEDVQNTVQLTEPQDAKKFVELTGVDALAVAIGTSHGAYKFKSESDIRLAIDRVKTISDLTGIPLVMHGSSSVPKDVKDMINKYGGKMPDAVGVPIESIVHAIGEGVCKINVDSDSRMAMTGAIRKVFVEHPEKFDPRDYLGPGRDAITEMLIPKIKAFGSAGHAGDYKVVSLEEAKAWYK
Experiment: qHTS Assay for Inhibitors of Fructose-1,6-bisphosphate Aldolase from Giardia Lamblia; also: nearly all actives have a fitted effect of over 55% in size
Details: purified Giardia FBPA; activity, negative = inhibition: at 59.6 µM (top of the series) unless noted
Outline: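 Giardia FBPA (40 nM reagent) was preincubated 10 min at RT with compound (up to 57.5 uM final), then substrate plus GAPDH/TPI/NAD/arsenate coupling system with diaphorase/resazurin was added; resorufin fluorescence (525/598 nm) was read after 20 min.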
% is scaled to controls: 0 for no effect and ±100 for the full control effect; potency is read from the fitted curve at half-maximal effect; tags tell the direction and shape of the fitted curve.

SMILES	Potency	activity, negative = inhibition
CC1(OC(=O)C2CCCC2)C(=O)C=C2C=C(c3ccsc3)N(CCc3ccccn3)C=C2C1=O (stereo not given)	inconclusive: 316 nM [inhibitor, full curve] and inconclusive: 1.12 µM [inhibitor, full curve]	–
COc1ccc(OCC(=O)Nc2ncc3c(n2)CC(C)(C)CC3=O)cc1	–	inactive: -2.01%
COc1ccc(-c2cc(C(=O)N3CCN(c4ccccc4O)CC3)c3ccccc3n2)cc1OC	inconclusive: 22.4 µM [inhibitor, single point]	–
Cc1nn(Cc2ccc(Cl)cc2Cl)c(Cl)c1C(=O)O	inconclusive: 22.3 µM [activator, partial curve]	–
CCOc1ccc(NC(=S)NC(=O)c2c(Cl)c(C)nn2C)c([N+](=O)[O-])c1	inconclusive: 14.1 µM [inhibitor, partial curve]	–
COc1ccccc1-n1c(-c2ccccc2)c[nH]c1=S	inconclusive: 19.9 µM [inhibitor, partial curve]	–
COc1ccc(C(=O)CSc2nnc(-c3ccco3)c(-c3ccco3)n2)cc1	inconclusive: 17.7 µM [inhibitor, partial curve]	–
C/C(=N/NC(=O)c1ccc2c(c1)OCO2)c1cccc(NC(=O)C(C)(C)C)c1	–	inactive: 2.17%
CN(C)c1ccc(CNc2ncnc3sccc23)cc1	–	inactive: 14.4%
Cc1ccccc1NC(=O)c1ccc(S(=O)(=O)N2CCCC2)cc1	–	inactive: 0.447%
COc1ccccc1NS(=O)(=O)c1cccc(NC(=O)NCCCl)c1	–	inactive: -20.2%
COc1cccc(-c2noc(Cn3nc(C)c([N+](=O)[O-])c3C)n2)c1	inconclusive: 19.9 µM [inhibitor, single point]	–
CCOC(=O)N1CCN(Cc2cc(Cl)c3cccnc3c2O)CC1	inconclusive: 19.9 µM [inhibitor, single point]	–
Cc1nc(NC(=O)c2ccccc2)sc1C1(C)CC(c2c(Cl)cccc2Cl)=NO1 (stereo not given)	–	inactive: -10.9%
Cc1cccc(NC(=S)Nn2cnnc2)c1C	active: 7.92 µM	–
CCOc1cc(CN2CCCCCC2)ccc1OC	inconclusive: 14.1 µM [inhibitor, partial curve]	–
Cc1cc(C)c2cc(C#N)c(NCCOC(=O)c3ccccc3C)nc2c1	–	inactive: -7.1%
COc1ccccc1C(=O)N/C(=C\c1cn(S(=O)(=O)N(C)C)c2ccccc12)C(=O)NCCCN1CCOCC1	–	inactive: -0.226%
CCN(c1ccccc1)S(=O)(=O)c1ccc(Cl)c(NC(=O)CN2CCCCCC2)c1	inconclusive: 15.8 µM [inhibitor, partial curve]	–
Oc1c(C(Nc2ccccn2)c2ccccn2)ccc2cccnc12 (stereo not given)	inconclusive: 5 µM [inhibitor, single point]	–
C/C(=C1/C(=O)N(c2ccc([N+](=O)[O-])cc2)N=C1c1ccccc1)N(C)C	–	inactive: 4.5%
COCCNC(=S)N/N=C1\CC(C)CC(C)(C)C1 (stereo not given)	active: 17.7 µM	–
Cc1ccc(Nc2nc(-c3sc(NC(=O)c4ccc([N+](=O)[O-])cc4)nc3C)cs2)cc1	–	inactive: -10.8%
C=CCn1c(SCC(=O)N2c3ccccc3Sc3ccccc32)nnc1-c1ccco1	–	inactive: -1.42%

SMILES	Potency	activity, negative = inhibition
COc1ccc(Nc2nc(C)cc(C)n2)cc1Cl	inconclusive: 35.5 µM [inhibitor, partial curve]	–
O=c1ccc2ccccc2[nH]1	inconclusive: 15.8 µM [inhibitor, single point]	–
COc1ccc(/C=C(\C#N)C(=O)ONC2=NCCCCC2)cc1	inconclusive: 15.8 µM [inhibitor, single point]	–
CCOc1ccc2c(c1)OC(c1ccc(C)cc1)(C(F)(F)F)NC2=O (stereo not given)	inconclusive: 15.8 µM [activator, partial curve, poor fit]	–
COc1ccc(C(=O)NNC(=O)CSc2nc3c([nH]2)c(=O)n(C)c(=O)n3C)cc1	inconclusive: 15.8 µM [inhibitor, partial curve]	–
C/C(=N\NC(=O)CNc1cccc(C(F)(F)F)c1)c1ccc(Br)cc1	–	inactive: -0.424%
C=CCNC(=O)c1ccc2c(=O)n(CCCN3CCCC3=O)c(=S)[nH]c2c1	inconclusive: 17.7 µM [inhibitor, single point]	–
O=C1CSC(=Nc2ccc(O)cc2)N1	–	inactive: 3.43%
CC1CN(C(=S)NC(=O)c2ccc([N+](=O)[O-])cc2)CC(C)O1 (stereo not given)	active: 19.9 µM	–
CCC(C)N1CCN(S(=O)(=O)c2ccc3ccccc3c2)CC1 (stereo not given)	inconclusive: 17.8 µM [inhibitor, partial curve]	–
O=C(N/N=C/c1cccc([N+](=O)[O-])c1)c1cc[n+](CCO)cc1	inconclusive: 15.8 µM [inhibitor, partial curve]	–
O=C(Cc1ccccc1)NCc1n[nH]c(=S)n1-c1ccccc1	inconclusive: 15.8 µM [inhibitor, single point]	–
COc1cc(/C=C(\C#N)C(=O)NCC2CCCO2)c([N+](=O)[O-])cc1OC (stereo not given)	inconclusive: 19.9 µM [inhibitor, partial curve]	–
CCOC(=O)c1[nH]c2ccccc2c1NC(=O)c1ccc(S(=O)(=O)N2CCCC2)cc1	–	inactive: 3.03%
O=C1c2cccc(Sc3ccccc3)c2C(=O)c2c(Sc3ccccc3)cccc21	inconclusive: 15.8 µM [inhibitor, single point]	–
COc1ccc(C(=O)c2no[n+]([O-])c2C(=O)c2ccc(OC)cc2)cc1	inconclusive: 15.8 µM [inhibitor, single point]	–
CC1=C(C)NC(=S)SC1	inconclusive: 15.8 µM [inhibitor, partial curve]	–
CCOC(=O)Cc1c[nH]c(=S)[nH]c1=O	active: 17.7 µM	–
CC(NC(=O)CSc1nc2c(cc1C#N)CN(C)CC2)c1ccccc1 (stereo not given)	inconclusive: 7.06 µM [inhibitor, partial curve]	–
OC1(C#CCN2CCCC2)c2ccccc2-c2ccccc21	inconclusive: 19.9 µM [inhibitor, single point]	–
CC(c1ccccc1)N1CCc2[nH]c(=S)[nH]c(=O)c2C1 (stereo not given)	inconclusive: 19.9 µM [inhibitor, single point]	–
COc1ccc(NC(=O)CC(NCc2ccccn2)C(=O)O)cc1 (stereo not given)	active: 11.2 µM	–
Cc1noc(C)c1C(c1ccccc1)S(=O)(=O)c1ccccc1 (stereo not given)	–	inactive: 1.87%
CN1CCC(=C2c3ccccc3CC(=O)c3sccc32)CC1	inactive	–

SMILES	Potency	activity, negative = inhibition
CCC(=O)N(C1=C(NC(C)C)C(=O)c2ccccc2C1=O)C(C)C	inconclusive: 0.5 µM [inhibitor, full curve]	–
CCCCC(C(=O)N/N=C/c1ccccn1)C(=O)N/N=C/c1ccccn1	inconclusive: 17.7 µM [inhibitor, single point]	–
Cc1cccc(NC2=C(C#N)C(=O)NC3(CCCC3)S2)c1	inconclusive: 19.9 µM [inhibitor, partial curve]	–
CN(C)c1ccc(C=C2C(=O)NC(=O)NC2=O)cc1[N+](=O)[O-]	inconclusive: 17.7 µM [inhibitor, single point]	–
CCOC(=O)N1CCN(S(=O)(=O)c2ccc(F)c(C(=O)Nc3cccc(Cl)c3C)c2)CC1	–	inactive: 2.24%
C/C(=N\NC(=O)C(C)Oc1ccc([N+](=O)[O-])cc1)c1ccccn1 (stereo not given)	inconclusive: 19.9 µM [inhibitor, single point]	–
COCCN1C=C2C(=O)C(C)(OC(=O)c3cccs3)C(=O)C=C2C=C1CCCC(=O)OC (stereo not given)	inconclusive: 630 nM [inhibitor, full curve] and inconclusive: 1.77 µM [inhibitor, partial curve]	–
CCN(CC)c1ccc(C2Nc3cccc4cccc(c34)N2)c(O)c1	inconclusive: 22.3 µM [inhibitor, partial curve]	–
COc1ccc(CC(=O)N[C@@H](CCSC)C(=O)N2CCC3(CC2)NCCc2[nH]cnc23)cc1	inconclusive: 31.6 µM [inhibitor, single point]	–
N#CC1=C(N)N(c2ccccc2)C2=C(C(=O)CCC2)C1c1cccs1 (stereo not given)	inconclusive: 15.8 µM [inhibitor, partial curve]	–
O=C(O)c1ccc(/C=N/n2cc(-c3ccccc3)[nH]c2=S)cc1	inconclusive: 2.23 µM [inhibitor, full curve, poor fit]	–
COc1cc(OC)c(OC)cc1CN1CCN(C(=O)Cc2ccccc2)CC1	–	inactive: -29.2%
COc1ccc(NC(=O)C2C3C=CC4(CN(Cc5cccnc5)C(=O)C24)O3)c(OC)c1 (stereo not given)	inconclusive: 17.7 µM [inhibitor, single point]	–
Cc1csc2nc(CCNS(=O)(=O)c3ccc4c(c3)OCCO4)cn12	–	inactive: -4.68%
CCN(CC)c1ccc(/C=C2/C(=O)N(c3ccc([N+](=O)[O-])cc3)N=C2N2CCOCC2)cc1	–	inactive: 1.79%
CC1=CC(=O)C=C(C)C1=NOS(=O)(=O)c1ccccc1	active: 3.97 µM	–
CCOC(=O)Cc1csc(NC(=S)NC(=O)c2ccc(C)cc2)n1	inconclusive: 3.54 µM [inhibitor, full curve]	–
O=C(CCN1CCc2ccccc2C1)Nc1cccc(F)c1	inconclusive: 22.3 µM [inhibitor, single point]	–
Cc1ccc(Cl)cc1NC(=O)C[n+]1ccc(Cc2ccc([N+](=O)[O-])cc2)cc1	inconclusive: 3.15 µM [inhibitor, full curve]	–
Cc1ccc(-c2cc(C(=O)NCc3ccccn3)c3ccccc3n2)cc1C	–	inactive: -4.95%
O=C(Nc1cc(S(=O)(=O)Nc2ccc(Cl)cc2)ccc1O)c1ccc(S(=O)(=O)N2CCCCCC2)cc1	inconclusive: 7.06 µM [inhibitor, single point]	–
COc1ccc(S(=O)(=O)NN(C)C(=O)c2nn(-c3ccccc3)ccc2=O)cc1	–	inactive: 2.55%
